Laboratory results from PubChem BioAssay (NCATS).
Inconclusive results, whose numbers are uncertain, are shown with a selection of clear calls. For part of these data: Where the call is inconclusive, the potency comes from a doubtful curve fit. Activity calls are given as the source filed them. The call rests on the fitted dose curve; in most records, active means well fitted curve in the direction sought with a large enough effect; inconclusive means small, poorly fitted or top-dose-only effect, or another doubt; inactive means no such curve, though single readings can be large; an effect the other way counts as inactive or inconclusive.

What was measured:
[1] = qHTS of pediatric cancer cell lines to identify multiple opportunities for drug repurposing: Primary screen for SK-N-SH cells (AID 1347098);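 further: DMSO served as neutral control and bortezomib at 2.3 µM as positive control; nearly all actives have a fitted effect of over 65% in size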
Summary of the method: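 Cells (500-1,000/well) rested 5 h, then received compounds for 48 h; metabolically active cells were measured by CellTiter-Glo luminescence. Final concentrations spanned up to 46 µM (MIPE, 11-point) or 0.59 nM-46 µM (NPC, 8-point) in primary screens, 11-point in follow-ups.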

[2] = biological target: Calcium and integrin-binding protein 1 (Homo sapiens) (UniProt Q99828); assay: Primary qHTS for Identification of Calcium Integrin Binding Protein 1 (CIB1) Competitor (AID 1508620); further: potency means the concentration at half of the fitted maximal effect
Summary of the method: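 CIB1-GST (1 uM final) and compound incubated 15 min at room temperature before adding FITC-alphaIIb peptide tracer (100 nM final). Competition for binding read by fluorescence polarization (ex 480, em 540) after another 15 min at room temperature.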

[3] = test system: CASKI; assay: Primary qHTS to identify gynecologic anti-cancer compounds using libraries of approved drugs and bioactive compounds (AID 1345084); settings: Gynecologic cancer cell panel viability, ATPlite luminescence, 48 h; series mostly up to 57.5 µM; further: nearly all actives have a fitted effect of over 55% in size; further: potency means the concentration at half of the fitted maximal effect
Summary of the method: (§1)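 Measured: luminescence after ATPlite addition (15 min, RT). Exposure: 48 h, 37 C, 5% CO2.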

[4] = P-glycoprotein substrates identified in KB-8-5-11 adenocarcinoma cell line, qHTS therapeutic library screen (AID 1346987); settings: activity change, negative = cytotoxicity: at 44.5 µM (top of the series); further: nearly all actives have a fitted effect of over 65% in size
Summary of the method: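 KB-8-5-11, a colchicine-selected P-gp-overexpressing KB-3-1 subline, was grown without colchicine for the assay. Cells were seeded at 500 cells/well, dosed in concentration-response and incubated 72 h at 37 degree C, 5% CO2. Viability was read by CellTiter-Glo luminescence.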

[5] = test system: Zika virus NS2B-NS3 protease (unlinked complex); assay: Primary screen GU Rhodamine qHTS for Zika virus inhibitors: Unlinked NS2B-NS3 protease assay (AID 1347159); settings: Recombinant ZIKV NS2B-NS3 protease, Rhodamine110 substrate fluorescence; activity change, negative = inhibition: at 107 µM (top of the series); further: potency means the concentration at half of the fitted maximal effect; nearly all actives have a fitted effect of over 60% in size
Summary of the method: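 Compounds, tested up to 114 microM, were incubated for 15 minutes with 25 nM unlinked NS2B-NS3 protease at pH 8.0. Cleavage of 1.5 microM Rhodamine110 substrate was then followed by fluorescence for 15 minutes.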

[6] = Primary fluorescence-based thiol-reactive (MSTI) qHTS assay for identification of artifact compounds. (AID 1845221);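 further: potency means the concentration at half of the fitted maximal effect; thiol-reactive compounds lower the probe fluorescence signal; nearly all actives have a fitted effect of over 65% in size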
Summary of the method: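 Reactivity toward the thiol probe MSTI (4 uM) is scored by fluorescence at Ex/Em 525/598 nm after 1 h at room temperature. Acetyl-MSTI and MSTI define the activity scale.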

[7] = test system: Es-2; assay: Primary qHTS to identify gynecologic anti-cancer compounds using libraries of approved drugs and bioactive compounds (AID 1345084); settings: Gynecologic cancer cell panel viability, ATPlite luminescence, 48 h; series mostly up to 57.5 µM; further: nearly all actives have a fitted effect of over 55% in size; further: potency means the concentration at half of the fitted maximal effect
Summary of the method: as §1

[8] = test system: HeLa; assay: as above; settings: Gynecologic cancer cell panel viability, ATPlite luminescence, 48 h; series mostly up to 57.5 µM
Summary of the method: as §1

[9] = test system: Zika virus NS2B-NS3 protease (linked construct); assay: Primary screen NINDS Rhodamine qHTS for Zika virus inhibitors (AID 1347160)
Summary of the method: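 Percent inhibition, normalized to uninhibited and enzyme-free controls, is fitted to a 4-parameter Hill equation. Fluorescence change comes from a 15-min cleavage of 1.5 microM bis-peptide Rhodamine110 substrate by 25 nM linked NS2B-NS3 at room temperature.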

[10] = Primary qHTS for inhibitors of nuclear receptor binding SET domain protein 2 (NSD2) in an RCH-ACV wild type WT cells (2C) (AID 1645877); settings: activity change, negative = cell killing: at 44.9 µM (top of the series) unless noted; further: nearly all actives have a fitted effect of over 70% in size; further: potency means the concentration at half of the fitted maximal effect
[11] = test system: OV90; assay: Primary qHTS to identify gynecologic anti-cancer compounds using libraries of approved drugs and bioactive compounds (AID 1345084); settings: Gynecologic cancer cell panel viability, ATPlite luminescence, 48 h; series mostly up to 57.5 µM; further: nearly all actives have a fitted effect of over 55% in size; further: potency means the concentration at half of the fitted maximal effect
Summary of the method: as §1

[12] = test system: PA-1; assay: as above; settings: Gynecologic cancer cell panel viability, ATPlite luminescence, 48 h; series mostly up to 57.5 µM
Summary of the method: as §1

[13] = test system: SKOV3; assay: as above; settings: Gynecologic cancer cell panel viability, ATPlite luminescence, 48 h; series mostly up to 57.5 µM
Summary of the method: as §1

[14] = biological target: N-terminal Xaa-Pro-Lys N-methyltransferase 1 (Homo sapiens) (UniProt Q9BV86); assay: Confirmatory qHTS for Inhibitors of N-terminal methyltransferase 1 (NTMT1): MTaseGlo Assay (AID 1645874); further: potency means the concentration at half of the fitted maximal effect; nearly all actives have a fitted effect of over 65% in size
Summary of the method: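 Compounds are incubated with 125 nM NTMT1 and 100 uM SAM for 15 min before the SPKRIA peptide (1 uM) starts a 30 min room-temperature methylation. SAH is measured by coupled luciferase luminescence and curves fitted to a Hill equation.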

[15] = Primary qHTS for inhibitors of nuclear receptor binding SET domain protein 2 (NSD2) in an isogenic RCH-ACV NSD2 p.E1099K mutant (9B) (AID 1645876); settings: activity change, negative = viability loss: at 44.9 µM (top of the series) unless noted; further: potency means the concentration at half of the fitted maximal effect; nearly all actives have a fitted effect of over 70% in size
[16] = biological target: Glutathione peroxidase 1 (Homo sapiens) (UniProt P07203); assay: Primary qHTS Assay for Inhibitors of Recombinant Selenoprotein Glutathione Peroxidase 1 (GPX1) (AID 1845191)
Summary of the method: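 10 nM GPX1 + cpd, 30 min RT; start w/ 1 mM GSH, 0.5 mM cumene hydroperoxide, 0.5 mM NADPH, 100 nM GR, 0.01% BSA; buffer 50 mM Tris-HCl pH 7.5, 2 mM EDTA, 150 mM NaCl; Fl 340/450, 0 & 15 min.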

[17] = biological target: Phospholipid hydroperoxide glutathione peroxidase GPX4 (Homo sapiens) (UniProt P36969); assay: Primary qHTS Assay for Inhibitors of Recombinant Selenoprotein Glutathione Peroxidase 4 (GPX4) (AID 1845192); settings: activity change, negative = inhibition: at 50 µM (top of the series) unless noted
Summary of the method: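 NADPH consumption, followed by fluorescence at 340/450 nm between 0 and 15 min, reports GPX4 activity via coupled glutathione reductase (100 nM). Enzyme 200 nM was pre-exposed to compound 30 min; 0.5 mM cumene hydroperoxide and 1 mM GSH served as substrates.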

[18] = biological target: Luciferin 4-monooxygenase (Photinus pyralis) (UniProt P08659); assay: Primary firefly luciferase (FLuc) qHTS assay for identification of artifact compounds. (AID 1845220); further: potency means the concentration at half of the fitted maximal effect; nearly all actives have a fitted effect of over 60% in size
Summary of the method: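 FLuc 10 nM; luciferin 10 uM; ATP 10 uM; Tris-acetate pH 7.6, Mg-acetate 10 mM; 15 min RT preincubation; 5 min reaction; luminescence.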

[19] = test system: Hek293T; assay: Primary qHTS to identify gynecologic anti-cancer compounds using libraries of approved drugs and bioactive compounds (AID 1345084); settings: Gynecologic cancer cell panel viability, ATPlite luminescence, 48 h, control line for the selectivity index; series mostly up to 57.5 µM; further: nearly all actives have a fitted effect of over 55% in size; further: potency means the concentration at half of the fitted maximal effect
Summary of the method: as §1

[20] = test system: Tov-21-G; assay: as above; settings: Gynecologic cancer cell panel viability, ATPlite luminescence, 48 h; series mostly up to 57.5 µM
Summary of the method: as §1

Measured: Potency
Tags describe the fitted curve by direction and shape.

UniProt Q9BV86, sequence (Q9BV86 whole entry, looked up): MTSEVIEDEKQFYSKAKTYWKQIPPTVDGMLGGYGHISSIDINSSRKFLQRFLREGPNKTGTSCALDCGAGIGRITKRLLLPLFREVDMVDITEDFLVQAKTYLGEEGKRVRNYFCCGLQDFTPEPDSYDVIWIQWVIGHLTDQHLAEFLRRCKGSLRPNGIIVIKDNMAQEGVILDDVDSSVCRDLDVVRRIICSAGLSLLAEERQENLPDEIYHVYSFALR
UniProt P07203, sequence (P07203 whole entry, looked up): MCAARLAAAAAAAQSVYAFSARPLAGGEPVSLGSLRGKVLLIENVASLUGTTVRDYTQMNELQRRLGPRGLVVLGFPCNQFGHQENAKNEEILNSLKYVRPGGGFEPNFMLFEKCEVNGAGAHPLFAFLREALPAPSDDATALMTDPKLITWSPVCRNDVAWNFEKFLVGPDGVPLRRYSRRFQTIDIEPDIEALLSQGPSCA
UniProt P36969, sequence (P36969 whole entry, looked up): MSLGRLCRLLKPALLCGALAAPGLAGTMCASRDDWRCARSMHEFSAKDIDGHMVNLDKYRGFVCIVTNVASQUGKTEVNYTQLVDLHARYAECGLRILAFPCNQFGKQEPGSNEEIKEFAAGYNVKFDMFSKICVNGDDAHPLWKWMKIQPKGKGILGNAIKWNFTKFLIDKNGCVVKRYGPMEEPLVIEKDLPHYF
UniProt Q99828, sequence (Q99828 whole entry, looked up): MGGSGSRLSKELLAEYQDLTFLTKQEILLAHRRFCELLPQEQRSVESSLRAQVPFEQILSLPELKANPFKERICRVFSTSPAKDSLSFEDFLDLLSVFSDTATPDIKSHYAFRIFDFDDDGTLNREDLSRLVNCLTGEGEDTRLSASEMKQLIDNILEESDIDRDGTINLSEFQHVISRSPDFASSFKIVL

OCCCc1ccccc1
inactive: [1] | [3]
inconclusive: [2] 56.2 µM [inhibitor, partial curve]

COC(=O)C1=CO[C@@H](O[C@@H]2O[C@H](CO[C@@H]3O[C@H](COC(=O)/C=C/c4cc(OC)c(O)c(OC)c4)[C@@H](O)[C@H](O)[C@H]3O)[C@@H](O)[C@H](O)[C@H]2O)[C@@H]2C(CO)=CC[C@H]12
inactive: [4] | [7] | [8]
inconclusive: [5] 28.2 µM [inhibitor, single point]
active: [6] 7.93 µM

CC(C)=CCC/C(C)=C/CC/C(C)=C/CC[C@]1(C)CCc2cc(O)cc(C)c2O1
inactive: [4] | [10] | [7] | [11] | [12]
inconclusive: [5] 7.94 µM [inhibitor, full curve] | [9] 11.2 µM [inhibitor, single point] | [13] 3.16 µM [cytotoxic, single point]

C=Cc1cc2oc(-c3ccc(O)c(F)c3)nc2cc1O
active: [14] 31.6 µM | [11] 25.1 µM
inactive: [7] | [19] | [20]
inconclusive: [5] 28.2 µM [inhibitor, full curve] | [9] 22.4 µM [inhibitor, partial curve] | [15] 25.8 µM [inhibitor, single point] | [10] 20.5 µM [inhibitor, single point] | [16] 22.7 µM [inhibitor, single point] | [17] 20.2 µM [inhibitor, partial curve] | [18] 33.8 µM [inhibitor, single point] | [6] 1.89 µM [inhibitor, partial curve, poor fit] | [8] 35.5 µM [cytotoxic, single point]
